According to PubChem BioAssay AID1508624 (National Center for Advancing Translational Sciences (NCATS), 2021):
About 120 (0.25%) of roughly 48,000 compounds were called active. About 4% were inconclusive and are not listed. The call rests on the fitted dose curve; in most records, active means well fitted activation curve with a large enough effect; inconclusive means small, poorly fitted or top-dose-only effect, or another doubt; inactive means no such curve, though single readings can be large or run the other way. The list shows a part of the results.

Test: Primary qHTS for Identification of Small Molecule Activators of Huntingtin-Antisense Promoter Activity; further: nearly all actives have a fitted effect of over 55% in size
Conditions: HEK293 HTT-AS promoter firefly luciferase reporter (activity 0% = vehicle and -100% = no light), 24 h; series mostly up to 57.5 µM; activity change, positive = activation: at the top concentration
Method in brief: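 HEK293 luciferase promoter-reporter cells (2,500/well) plated 24 h, then compounds added at up to 57.5 uM final for 24 h at 37 °C. Firefly luminescence by Dual-Glo, normalized to vehicle (0%) and zero RLU (-100%).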

Activity change, positive = activation, inactive:
Cc1cccc(N(C)S(=O)(=O)c2nnc(NC(=O)c3cccs3)s2)c1 -19.8%
Cc1ccc(C(=O)c2sc(Nc3ccccc3)c(S(=O)(=O)c3ccccc3)c2N)c(C)c1 -13.9%
CCOC(=O)c1cccc(NC(=O)Cn2c(=O)c3cccn3c3ccccc32)c1 -16.1%
Cc1cc(C)n2nc(CNC(=O)c3c(F)cccc3F)nc2n1 -13.4%
NCCCCCC(=O)O
COCCn1c(CNC(=O)c2cccc(C)c2)nc2cccnc21 -6.04%
COCCNC(=O)C1CCN(Cc2cc3ccccc3n2Cc2ccc(C)cc2)CC1 -8.91%
COc1ccccc1NC(=O)C1=C(C)Nc2nc(SCc3ccccc3)nn2C1c1cccc(O)c1 (centres undefined) -32.3%
c1ccc2c(CCNc3ccc(Nc4ccncc4)cc3)c[nH]c2c1 -26.8%
Cc1cc(Cl)ccc1OCC(=O)N(Cc1sccc1C)C1CCS(=O)(=O)C1 (centres undefined) -14.7%
CCC(=O)Nc1ccc2nc(SCCOc3ccc(C)cc3OC)sc2c1 -11.6%
CC(=O)c1ccc(NC(=O)CSc2nc(-c3ccc(C)cc3)nc3c2c(=O)n(C)c(=O)n3C)cc1 -1.16%
CCn1c(=O)cc(OCC(=O)N2CCN(c3ccc(C)cc3)C(C)C2)c2ccccc21 (centres undefined) -44.6%
CCCOc1cccc(C(=O)N(Cc2sccc2C)C2CCS(=O)(=O)C2)c1 (centres undefined) -19.4%
COc1ccc(CNC(=O)c2cnc(N(C)C)nc2)cc1 -7.72%
Cc1ccc2c(c1)C(=O)[C@]1(O)CCN(c3ccccc3)C1=N2 -0.8%
CC(C)OCCCNC(=O)CN1C(=O)c2cccnc2Sc2ccccc21 -6.62%
O=C(Cn1cc(SCc2c(F)cccc2Cl)c2ccccc21)N1CCCCC1 28.8%
Cn1c(=O)n(Cc2ccccc2)c(=O)c2c1nc1n2CCN1c1ccccc1 -20.2%
CCN(CC)CCNC(=O)CN1N=C(c2ccc(OC)cc2)CCC1=O -4.91%
COc1c(C)cnc(Cn2cnc3c(Cl)nc(N)nc32)c1C -56.7%
COc1ccc2c(Oc3ccc(NC(=O)c4c(C)n(CC(C)(C)O)n(-c5ccccc5)c4=O)nc3)ccnc2c1 -15.2%
Cc1ccc(-c2cn3cccnc3n2)cc1NC(=O)Nc1ccc(F)cc1 6.47%
CC(C)(C)OC(=O)N1CCC(c2c(C(=O)N3CCN(c4ccccn4)CC3)cnn2-c2ccc(F)cc2)CC1 -14.8%
COc1ccc2c(c1)c(=O)c(S(=O)(=O)c1ccc(F)cc1)cn2Cc1ccccc1Cl -1.16%
COc1cccc2c(C)cc3nnc(SCC(=O)Nc4ccc(C)cc4)n3c12 -9.05%
COCCNC(=O)CN1C(=O)c2cccnc2Sc2ccccc21 -10.5%
O=C(Cn1ncc2c1-c1ccccc1OC2)N1CCN(c2ccccc2)CC1 -16.4%
O=C(c1ccc2c(c1)OCO2)c1cn(Cc2ccc(Cl)cc2)c2ccc(F)cc2c1=O -30.2%
CCCCOc1ccc(C(=O)N2CCCCC2CCN2CCOCC2)cc1 (centres undefined) -10.8%
CC1CCC(NC(=O)c2ccc(CS(=O)(=O)c3ccc(Cl)cc3)o2)CC1 (centres undefined) -31.1%
CCN(CC)S(=O)(=O)c1ccc(C(=O)NCCSc2c(-c3ccc(F)cc3)[nH]c3ccccc23)cc1 -35.2%
Cc1cc(C)c(S(=O)(=O)NCC(c2ccco2)N2CCOCC2)c(C)c1 (centres undefined) -18.7%
CCc1nc2c(cnn2-c2ccc(C)cc2)c(=O)n1Cc1ccccc1 -28.4%
CCOC(=O)N1CCc2c(sc3c2c(=O)n(Cc2ccccc2)c(=O)n3Cc2cccc(C)c2)C1 -14.1%
CC=CC(=O)N(CC)c1ccccc1C -39.6%
Cc1ccc(-c2onc(C)c2C)cc1S(=O)(=O)NCc1ccc(N(C)C)cc1 -27.7%
COc1ccc(NC(=O)c2cc(C)nc3c2c(C)nn3-c2ccc(C)cc2)cc1OC -29.8%
C=CCC(CC=C)(CNC(=O)C(=O)Nc1ccc(C)cc1)c1ccccc1 28.3%
COc1cccc(Cn2c(=O)n(-c3cccc(Cl)c3)c(=O)c3c4c(sc32)CN(C(C)=O)CC4)c1 -39%
CCOc1ccc(NC(=O)CN2CCN(S(=O)(=O)c3ccc(OC)cc3)CC2)cc1 -16%
CCOc1cc(OCC)cc(C(=O)Nc2cccc(-c3nc4ccccc4[nH]3)c2)c1 -68.1%
COc1ccccc1-c1nnc(C2CCN(C(=O)c3cccc(C)c3)CC2)o1 -11.9%
CCn1c(=O)cc(OCC(=O)NCc2ccccc2OC)c2ccccc21 -11.8%
Cc1ccccc1Nc1nn2c(=O)c3ccc(C(=O)NCc4ccccc4)cc3nc2s1 -21%
O=C(C1CC1)N1CC[C@@H](Cn2c(-c3ccc(-c4ccc5occc5c4)cc3)nc3cnccc32)C1 3.9%
CCN(CC)CCNC(=O)C(=O)NCC(c1ccc2c(c1)OCO2)N1CCOCC1 (centres undefined) -10.7%
COCc1cc(C)nc2c1C(=O)NC(c1ccc(C)cc1)N2Cc1ccccc1 (centres undefined) -26.1%
O=C(CSc1cn(CC(=O)N2CCCCC2)c2ccccc12)NCc1ccccc1 -29.1%
CCCN1C(=O)c2[nH]nc(-c3ccccc3)c2C1c1cccc(O)c1 (centres undefined) -20.9%
CCOc1ccc(-c2nnc(SCC(=O)NCc3ccccc3Cl)o2)cc1 -5.33%
Cc1ccc(NC(=O)c2oc3ccccc3c2NC(=O)Cc2ccccc2)cc1 5.92%
CCOc1ccc(CNC(=O)C2CCN(c3nnc(-n4c(C)ccc4C)s3)CC2)cc1 -41%
CCOc1ccc(S(=O)(=O)N2CCN(c3cccc(C(F)(F)F)c3)CC2)cc1OCC -18.8%
COc1ccccc1NC(=O)CSC1=Nc2ccccc2C2=NC(Cc3ccccc3)C(=O)N12 (centres undefined) -15.1%
COc1ccc2c(c1)CCc1sc(NC(=O)c3cccc(Br)c3)nc1-2 -16.3%
O=C(NCc1ccccc1F)c1sc2ncccc2c1-n1cccc1 -4.95%
CCn1cc2nc(SCC(=O)Nc3ccc(C)cc3)n(Cc3ccc(C)cc3)c(=O)c2n1 -2.75%
COC(=O)CN1C(=O)C(C)(C)c2cc(S(=O)(=O)Nc3ccc(Br)cc3F)ccc21 -21.3%
O=C(O)Cn1cnnn1 0.636%
Cc1[nH]c2ccc(Br)cc2c1CCNC(=O)c1cc2ccccc2oc1=O -13.7%
CCN(CC)c1ccc(NC(=O)CN2CCN(c3ccccc3F)CC2)cc1 1.18%
O=S(=O)(NCCS(=O)(=O)N1CCN(c2cccc(Cl)c2)CC1)c1ccc(F)cc1 -20.2%
CCOc1ccc(C2=NC(c3cccs3)=Nc3ccc(CC)cc3N2)cc1OCC 14.2%
